Results from the supplement of paper PMC6089552.
The whole screen tested about 3,200 compounds, of which about 300 (9.4%) showed activity. The list shows a part of the results, in another mix than the full data.

System: A673/TR/shEF
Assay: cell viability (LOESS-normalised, relative to median of negative controls) (log2 ratio); higher = more viable cells (less compound effect), active = hit call of the paper (over 3 MAD below the median)
Details: treatment time: 72 h
How it was run: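 For three days, A673/TR/shEF Ewing sarcoma cells in 384-well plates (1,500 per well) were treated with library compounds at two or more concentrations or with DMSO controls, after doxycycline had been added or withheld 24 h beforehand to induce EWS-FLI1 shRNA knockdown. Viability was read by CellTiter-Glo luminescence on an Envision reader. The data were LOESS-corrected per plate, divided by the median of negative controls and log2-transformed.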

[1] = 0.25 µM, library screen: screen2, EWS-FLI1 expression: high (no doxycycline)
[2] = 0.25 µM, library screen: screen2, EWS-FLI1 expression: low (doxycycline-induced shRNA knockdown)
[3] = 2.5 µM, library screen: screen2, EWS-FLI1 expression: high (no doxycycline)
[4] = 2.5 µM, library screen: screen2, EWS-FLI1 expression: low (doxycycline-induced shRNA knockdown)
[5] = 0.25 µM, library screen: screen1, EWS-FLI1 expression: high (no doxycycline)
[6] = 0.25 µM, library screen: screen1, EWS-FLI1 expression: low (doxycycline-induced shRNA knockdown)
[7] = 2.5 µM, library screen: screen1, EWS-FLI1 expression: high (no doxycycline)
[8] = 2.5 µM, library screen: screen1, EWS-FLI1 expression: low (doxycycline-induced shRNA knockdown)

Measured: cell viability (log2)

C[N+]1(C)[C@H]2CC(OC(=O)C(CO)c3ccccc3)C[C@H]1[C@H]1O[C@H]12 (stereo partly drawn)
inactive: [1] 0.258 | [2] 0.0872 | [3] 0.133 | [4] -0.00973

C[C@@H]1CC[C@@]2(NC1)O[C@H]1C[C@H]3[C@@H]4CC=C5C[C@@H](O)CC[C@]5(C)[C@H]4CC[C@]3(C)[C@H]1[C@@H]2C
inactive: 0.025 µM, library screen: screen2, EWS-FLI1 expression: high (no doxycycline) 0.0804 | 0.025 µM, library screen: screen2, EWS-FLI1 expression: low (doxycycline-induced shRNA knockdown) 0.071 | [5] 0.101 | [6] 0.14 | [1] 0.194 | [2] 0.0802 | [7] 0.13 | [8] 0.0856 | [3] 0.106 | [4] 0.133 | 25 µM, library screen: screen2, EWS-FLI1 expression: high (no doxycycline) 0.0875 | 25 µM, library screen: screen2, EWS-FLI1 expression: low (doxycycline-induced shRNA knockdown) 0.0211

Cc1ccccc1CN1CCN(Cc2ccc(F)cc2)CC1
inactive: [5] 0.0915 | [6] 0.13 | [7] 0.113 | [8] 0.0962

COc1cc2c(cc1OC)[C@H]1C(=O)c3ccc4c(c3O[C@H]1CO2)C[C@@H](C(C)C)O4
active: [5] -1.56 | [6] -0.67 | [7] -2.2 | [8] -0.747

CCCN(CCC)C(=O)Cc1c(-c2ccc(Cl)cc2)nc2c(Cl)cc(Cl)cn12
inactive: [1] 0.223 | [2] 0.162 | [3] 0.087 | [4] 0.137

NNCc1cccc(O)c1
inactive: [5] 0.103 | [6] 0.0544 | [1] 0.129 | [2] 0.00623 | [7] 0.142 | [8] 0.142 | [3] 0.151 | [4] 0.0221

CC[C@@]1(O)C[C@H](OC2C[C@@H](N(C)C)C(O)C(C)O2)c2c(cc3c(c2O)C(=O)c2c(O)ccc(O)c2C3=O)[C@H]1C(=O)OC (stereo partly drawn)
active: [7] -0.221
inactive: [5] 0.0817 | [6] 0.158 | [8] 0.00788

C[C@@H]1C[C@H]2CC(=O)[C@H]3CCCN4CCC[C@H]2[C@]34C1
inactive: [5] 0.103 | [6] 0.0455 | [7] 0.108 | [8] 0.0845

CCCN(CCC)[C@@H]1CCc2c(F)ccc(O)c2C1
inactive: [1] 0.13 | [2] 0.0763 | [3] 0.181 | [4] 0.101

N[C@@H]1C[C@H]1c1ccccc1
inactive: [1] -0.0136 | [2] 0.0758 | [3] 0.095 | [4] 0.0498

CC1(C)C2CC(=O)[C@]3(C)C(CC[C@@]4(C)[C@H](c5ccoc5)OC(=O)C5OC543)[C@@]2(C)[C@@H](O)C[C@H]1O (stereo partly drawn)
inactive: [5] 0.13 | [6] 0.163 | [7] 0.0438 | [8] 0.227

C[C@@H]1O[C@@H](O[C@H]2CC[C@]3(C=O)[C@H]4CC[C@]5(C)[C@@H](C6=CC(=O)OC6)CC[C@]5(O)[C@@H]4CC[C@]3(O)C2)[C@H](O)[C@H](O)[C@H]1O
inactive: [5] 0.0221 | [6] 0.0427
active: [7] -3.36 | [8] -3.89

COc1cc(CC(C)N)c(OC)cc1I (stereo not drawn)
inactive: [1] 0.14 | [2] 0.0726 | [3] 0.151 | [4] 0.083

CN[C@@H](C)[C@@H](O)c1ccccc1
inactive: [5] 0.118 | [6] 0.0568 | [7] 0.122 | [8] 0.201

O.O=C1OC2(c3cc(Br)c([O-])cc3Oc3c2cc(Br)c([O-])[c]3[Hg])c2ccccc21.[Na+].[Na+] (stereo not drawn)
inactive: [5] 0.113 | [6] 0.0666 | [7] 0.139 | [8] 0.132

CCOP(=S)(OCC)SCSCC
inactive: [5] 0.102 | [6] -0.0178 | [7] 0.0726 | [8] 0.115

CCC(C)C(=O)O[C@@H]1C[C@@]2(C)[C@H](c3ccoc3)OC(=O)CC23OC2(C)OC14C1(C)[C@@H](CC(=O)OC)C5(C)CC1(O)C(O)([C@@H](OC(C)=O)C43O2)[C@H]5OC(=O)C1(C)OC1C (stereo partly drawn)
inactive: [5] 0.0892 | [6] 0.0664 | [7] 0.0941 | [8] 0.178

Cc1sc2ccccc2c1CC1=NCCN1
inactive: [1] 0.233 | [2] 0.099 | [3] 0.201 | [4] 0.0637

C[N+](C)(C)CCOC(=O)CBr
inactive: [1] 0.173 | [2] 0.097 | [3] 0.0892 | [4] 0.139
